# From the supplement of paper PMC8728848
# The list shows a part of the results.
# B1: PFL (Pseudomonas fluorescens) (protein)
# chain: MSKYAVANQWGGSSAPWHPGGTWVLGARDNQNVVAIEIKSGDGGKSFTGTMTYAGEGPIGFKAQRTGQNQYNVENQWGGNDAPWHPGGKWVIGGRDNQNVIALSVTSSDGGKNLSGTNTYANEGPIGFRGQIE
# Legend:
# Assay in all cases: glycan array binding signal (z-score within array); higher = stronger binding
# Conditions in all cases: glycan notation: IUPAC condensed, linker removed
# [1] = target: Neu5Ac(a2-3)Gal(b1-4)GlcNAc(b1-2)[Neu5Ac(a2-3)Gal(b1-4)GlcNAc(b1-4)]Man(a1-3)[GlcNAc(b1-4)][Neu5Ac(a2-3)Gal(b1-4)GlcNAc(b1-2)[Neu5Ac(a2-3)Gal(b1-4)GlcNAc(b1-6)]Man(a1-6)]Man(b1-4)GlcNAc(b1-4)GlcNAc
# Summary of the method: (§1)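 Glycan array data were curated from 3228 arrays in the Consortium for Functional Glycomics database and kept only where the protein sequence was available. Glycan names were converted to IUPAC-condensed notation, and columns mapping to the same glycan were averaged. The binding signal is a within-array Z-score, averaged across arrays of the same protein sequence at different concentrations or buffers and across linkers. Negative Z-scores can be read as non-binding.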
# [2] = target: Neu5Ac(a2-3)Gal(b1-4)GlcNAc(b1-2)[Neu5Ac(a2-3)Gal(b1-4)GlcNAc(b1-4)]Man(a1-3)[GlcNAc(b1-4)][Neu5Ac(a2-3)Gal(b1-4)GlcNAc(b1-4)Man(a1-6)]Man(b1-4)GlcNAc(b1-4)GlcNAc
# Summary of the method: as §1
# [3] = target: Neu5Ac(a2-3)Gal(b1-4)GlcNAc(b1-2)[Neu5Ac(a2-3)Gal(b1-4)GlcNAc(b1-6)]Man(a1-6)[Neu5Ac(a2-3)Gal(b1-4)GlcNAc(b1-2)Man(a1-3)]Man(b1-4)GlcNAc(b1-4)GlcNAc
# Summary of the method: as §1
# [4] = target: Neu5Ac(a2-3)Gal(b1-4)GlcNAc(b1-2)[Neu5Ac(a2-3)Gal(b1-4)GlcNAc(b1-6)]Man(a1-6)[Neu5Ac(a2-3)Gal(b1-4)GlcNAc(b1-2)Man(a1-3)][GlcNAc(b1-4)]Man(b1-4)GlcNAc(b1-4)GlcNAc
# Summary of the method: as §1
# [5] = target: Neu5Ac(a2-3)Gal(b1-4)GlcNAc(b1-3)Gal
# Summary of the method: as §1
# [6] = target: Neu5Ac(a2-3)Gal(b1-4)GlcNAc(b1-3)Gal(b1-3)GlcNAc
# Summary of the method: as §1
# [7] = target: Neu5Ac(a2-3)Gal(b1-4)GlcNAc(b1-3)Gal(b1-4)GlcNAc
# Summary of the method: as §1
# [8] = target: Neu5Ac(a2-3)Gal(b1-4)GlcNAc(b1-3)Gal(b1-4)GlcNAc(b1-2)Man(a1-3)[Neu5Ac(a2-3)Gal(b1-4)GlcNAc(b1-3)Gal(b1-4)GlcNAc(b1-2)Man(a1-6)]Man(b1-4)GlcNAc(b1-4)GlcNAc
# Summary of the method: as §1
# [9] = target: Neu5Ac(a2-3)Gal(b1-4)GlcNAc(b1-3)Gal(b1-4)GlcNAc(b1-3)Gal(b1-4)GlcNAc
# Summary of the method: as §1
# [10] = target: Neu5Ac(a2-3)Gal(b1-4)GlcNAc(b1-3)Gal(b1-4)GlcNAc(b1-3)Gal(b1-4)GlcNAc(b1-2)Man(a1-3)[Neu5Ac(a2-3)Gal(b1-4)GlcNAc(b1-3)Gal(b1-4)GlcNAc(b1-3)Gal(b1-4)GlcNAc(b1-2)Man(a1-6)]GalNAc
# Summary of the method: as §1
# [11] = target: Neu5Ac(a2-3)Gal(b1-4)GlcNAc(b1-3)Gal(b1-4)GlcNAc(b1-3)GalNAc
# Summary of the method: as §1
# [12] = target: Neu5Ac(a2-3)Gal(b1-4)GlcNAc(b1-3)Gal(b1-4)GlcNAc(b1-3)[Neu5Ac(a2-3)Gal(b1-4)GlcNAc(b1-3)Gal(b1-4)GlcNAc(b1-6)]GalNAc
# Summary of the method: as §1
# [13] = target: Neu5Ac(a2-3)Gal(b1-4)GlcNAc(b1-3)Gal(b1-4)GlcNAc(b1-6)[Gal(b1-3)]GalNAc
# Summary of the method: as §1
# [14] = target: Neu5Ac(a2-3)Gal(b1-4)GlcNAc(b1-3)Gal(b1-4)[Fuc(a1-3)]GlcNAc
# Summary of the method: as §1
# [15] = target: Neu5Ac(a2-3)Gal(b1-4)GlcNAc(b1-3)GalNAc
# Summary of the method: as §1
# [16] = target: Neu5Ac(a2-3)Gal(b1-4)GlcNAc(b1-3)[Neu5Ac(a2-3)Gal(b1-4)GlcNAc(b1-6)]GalNAc
# Summary of the method: as §1
# [17] = target: Neu5Ac(a2-3)Gal(b1-4)GlcNAc(b1-6)GalNAc
# Summary of the method: as §1
# [18] = target: Neu5Ac(a2-3)Gal(b1-4)GlcNAc(b1-6)[Gal(b1-3)]GalNAc
# Summary of the method: as §1
# [19] = target: Neu5Ac(a2-3)Gal(b1-4)GlcNAc(b1-6)[Neu5Ac(a2-3)Gal(b1-3)]GalNAc
# Summary of the method: as §1
# [20] = target: Neu5Ac(a2-3)Gal(b1-4)GlcNAc6S
# Summary of the method: as §1
# [21] = target: Neu5Ac(a2-3)Gal(b1-4)[Fuc(a1-3)]GlcNAc
# Summary of the method: as §1
# [22] = target: Neu5Ac(a2-3)Gal(b1-4)[Fuc(a1-3)]GlcNAc(b1-2)Man
# Summary of the method: as §1
# [23] = target: Neu5Ac(a2-3)Gal(b1-4)[Fuc(a1-3)]GlcNAc(b1-3)Gal
# Summary of the method: as §1
# [24] = target: Neu5Ac(a2-3)Gal(b1-4)[Fuc(a1-3)]GlcNAc(b1-3)Gal(b1-4)GlcNAc
# Summary of the method: as §1
# [25] = target: Neu5Ac(a2-3)Gal(b1-4)[Fuc(a1-3)]GlcNAc(b1-3)Gal(b1-4)[Fuc(a1-3)]GlcNAc(b1-3)Gal(b1-4)[Fuc(a1-3)]GlcNAc
# Summary of the method: as §1
# [26] = target: Neu5Ac(a2-3)Gal(b1-4)[Fuc(a1-3)]GlcNAc(b1-3)GalNAc
# Summary of the method: as §1
# [27] = target: Neu5Ac(a2-3)Gal(b1-4)[Fuc(a1-3)]GlcNAc(b1-6)[Gal(b1-3)]GalNAc
# Summary of the method: as §1
# [28] = target: Neu5Ac(a2-3)Gal(b1-4)[Fuc(a1-3)]GlcNAc(b1-6)[Neu5Ac(a2-3)Gal(b1-3)]GalNAc
# Summary of the method: as §1
# [29] = target: Neu5Ac(a2-3)Gal(b1-4)[Fuc(a1-3)]GlcNAc6S
# Summary of the method: as §1
# [30] = target: Neu5Ac(a2-3)Gal6S(b1-4)GlcNAc
# Summary of the method: as §1
# [31] = target: Neu5Ac(a2-3)Gal6S(b1-4)[Fuc(a1-3)]GlcNAc
# Summary of the method: as §1
# Neu5Ac(a2-3)GalNAc = target: Neu5Ac(a2-3)GalNAc
# Summary of the method: as §1
# [32] = target: Neu5Ac(a2-3)GalNAc(b1-4)GlcNAc
# Summary of the method: as §1
# [33] = target: Neu5Ac(a2-3)[GalNAc(b1-4)]Gal(b1-4)Glc
# Summary of the method: as §1
# [34] = target: Neu5Ac(a2-3)[GalNAc(b1-4)]Gal(b1-4)GlcNAc
# Summary of the method: as §1
# [35] = target: Neu5Ac(a2-3)[GalNAc(b1-4)]Gal(b1-4)GlcNAc(b1-3)GalNAc
# Summary of the method: as §1
# [36] = target: Neu5Ac(a2-3)[Neu5Ac(a2-6)]GalNAc
# Summary of the method: as §1
# Neu5Ac(a2-6)Gal = target: Neu5Ac(a2-6)Gal
# Summary of the method: as §1
# [37] = target: Neu5Ac(a2-6)Gal(b1-3)GlcNAc(b1-3)[Gal(b1-4)GlcNAc(b1-6)]Gal(b1-4)Glc
# Summary of the method: as §1
# Neu5Ac(a2-6)Gal(b1-4)Glc = target: Neu5Ac(a2-6)Gal(b1-4)Glc
# Summary of the method: as §1
# [38] = target: Neu5Ac(a2-6)Gal(b1-4)GlcNAc
# Summary of the method: as §1
# [39] = target: Neu5Ac(a2-6)Gal(b1-4)GlcNAc(b1-2)Man
# Summary of the method: as §1
# [40] = target: Neu5Ac(a2-6)Gal(b1-4)GlcNAc(b1-2)Man(a1-3)Man(b1-4)GlcNAc(b1-4)GlcNAc
# Summary of the method: as §1
# [41] = target: Neu5Ac(a2-6)Gal(b1-4)GlcNAc(b1-2)Man(a1-3)[Gal(b1-4)GlcNAc(b1-2)Man(a1-6)]Man(b1-4)GlcNAc(b1-4)GlcNAc
# Summary of the method: as §1
# [42] = target: Neu5Ac(a2-6)Gal(b1-4)GlcNAc(b1-2)Man(a1-3)[GlcNAc(b1-2)Man(a1-6)]Man(b1-4)GlcNAc(b1-4)GlcNAc
# Summary of the method: as §1
binder,measurement,setting,value
B1,glycan array binding signal (z-score),[1],-0.114
same,glycan array binding signal (z-score),[2],-0.117
same,glycan array binding signal (z-score),[3],0.069
same,glycan array binding signal (z-score),[4],-0.116
same,glycan array binding signal (z-score),[5],-0.107
same,glycan array binding signal (z-score),[6],-0.116
same,glycan array binding signal (z-score),[7],-0.12
same,glycan array binding signal (z-score),[8],-0.103
same,glycan array binding signal (z-score),[9],-0.121
same,glycan array binding signal (z-score),[10],-0.101
same,glycan array binding signal (z-score),[11],-0.113
same,glycan array binding signal (z-score),[12],-0.106
same,glycan array binding signal (z-score),[13],-0.115
same,glycan array binding signal (z-score),[14],-0.114
same,glycan array binding signal (z-score),[15],-0.117
same,glycan array binding signal (z-score),[16],-0.116
same,glycan array binding signal (z-score),[17],-0.114
same,glycan array binding signal (z-score),[18],-0.116
same,glycan array binding signal (z-score),[19],-0.108
same,glycan array binding signal (z-score),[20],-0.115
same,glycan array binding signal (z-score),[21],-0.119
same,glycan array binding signal (z-score),[22],-0.119
same,glycan array binding signal (z-score),[23],-0.117
same,glycan array binding signal (z-score),[24],-0.103
same,glycan array binding signal (z-score),[25],-0.113
same,glycan array binding signal (z-score),[26],-0.078
same,glycan array binding signal (z-score),[27],-0.107
same,glycan array binding signal (z-score),[28],-0.096
same,glycan array binding signal (z-score),[29],-0.117
same,glycan array binding signal (z-score),[30],-0.118
same,glycan array binding signal (z-score),[31],-0.114
same,glycan array binding signal (z-score),Neu5Ac(a2-3)GalNAc,-0.117
same,glycan array binding signal (z-score),[32],-0.109
same,glycan array binding signal (z-score),[33],-0.116
same,glycan array binding signal (z-score),[34],-0.117
same,glycan array binding signal (z-score),[35],-0.111
same,glycan array binding signal (z-score),[36],-0.117
same,glycan array binding signal (z-score),Neu5Ac(a2-6)Gal,-0.111
same,glycan array binding signal (z-score),[37],-0.116
same,glycan array binding signal (z-score),Neu5Ac(a2-6)Gal(b1-4)Glc,-0.113
same,glycan array binding signal (z-score),[38],-0.118
same,glycan array binding signal (z-score),[39],-0.113
same,glycan array binding signal (z-score),[40],-0.112
same,glycan array binding signal (z-score),[41],-0.119
same,glycan array binding signal (z-score),[42],0.313
